Experimental data published in PubChem BioAssay AID485290 (National Center for Advancing Translational Sciences (NCATS), 2010).
Hit rate of the full screen: of about 350,000 compounds, about 990 (0.28%) were called active. This list was built around the results that the source calls inconclusive (neither active nor inactive); the mix of calls is not that of the screen. Calls come from the whole dose curve; as a rule, active = well fitted inhibition curve with a large enough effect; inconclusive = small, poorly fitted or top-dose-only effect; inactive = no such curve, though single readings can be large or run the other way. A potency beside an inconclusive call is a rough fit, not a confirmed value. Where a structure was tested more than once in an assay, its records may differ in their call.

Molecular target: Tyrosyl-DNA phosphodiesterase 1 (Homo sapiens) (UniProt Q9NUW8)
UniProt Q9NUW8, sequence (Q9NUW8 whole entry, looked up): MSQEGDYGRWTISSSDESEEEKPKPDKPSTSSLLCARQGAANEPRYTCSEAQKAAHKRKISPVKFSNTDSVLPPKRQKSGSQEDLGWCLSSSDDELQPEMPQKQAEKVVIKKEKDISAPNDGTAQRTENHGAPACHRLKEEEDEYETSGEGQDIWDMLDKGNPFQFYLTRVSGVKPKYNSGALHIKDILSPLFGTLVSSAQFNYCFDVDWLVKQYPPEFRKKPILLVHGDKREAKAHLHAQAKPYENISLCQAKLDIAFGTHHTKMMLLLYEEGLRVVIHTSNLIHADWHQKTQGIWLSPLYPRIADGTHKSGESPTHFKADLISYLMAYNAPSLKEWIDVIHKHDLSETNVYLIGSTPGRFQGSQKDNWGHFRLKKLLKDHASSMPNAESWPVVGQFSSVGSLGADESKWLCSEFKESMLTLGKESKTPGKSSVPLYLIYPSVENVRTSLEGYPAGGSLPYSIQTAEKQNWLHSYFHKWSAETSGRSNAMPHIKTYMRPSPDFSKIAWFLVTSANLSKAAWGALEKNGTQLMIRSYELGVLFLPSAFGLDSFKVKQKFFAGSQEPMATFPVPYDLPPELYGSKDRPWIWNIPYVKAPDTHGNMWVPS
Experiment: qHTS Assay for Inhibitors of Tyrosyl-DNA Phosphodiesterase (TDP1); note: nearly all actives have a fitted effect of over 40% in size
Details: recombinant TDP1, AlphaScreen DNA substrate cleavage; series mostly up to 130 µM; activity change, negative = inhibition: at the top concentration
Procedure, shortened: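 Here, a 5' biotin and 3' phosphotyrosine-FITC DNA oligonucleotide reports Tdp1 activity: intact substrate bridges AlphaScreen beads, while cleavage leaves a 3' phosphate and drops signal. All incubations at room temperature.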
% is set by controls: 0 for no effect and ±100 for the full control effect; potency is the fitted concentration of half-maximal effect; tags give direction and shape of the fitted curve.

SMILES | Potency | activity change, negative = inhibition
COC(C)(C)CCCC(C)C/C=C/C(C)=C/C(=O)OC(C)C (centres undefined) | active: 15.8 µM | –
CCOC(=O)c1ccc(NC(=O)c2c(O)[nH]c(=O)[nH]c2=O)cc1 | inconclusive: 44.7 µM [inhibitor, partial curve] | –
C=C(C)C1CCC(C)=CC1c1c(OC)cc(C)cc1OC (centres undefined) | inconclusive: 5.01 µM [inhibitor, full curve] | –
CCOC(=O)c1c(/N=C/c2c(O)n(-c3ccccc3F)c(=S)[nH]c2=O)sc2c1CCCC2 | inconclusive: 20 µM [inhibitor, partial curve] | –
CCC(=NCc1cccnc1)c1c(O)n(-c2ccccc2C)c(=O)[nH]c1=O | inconclusive: 0.355 µM [inhibitor, partial curve] | –
Clc1ccc(C2CC3CCC2N3)cn1 (centres undefined) | inconclusive: 31.6 µM [inhibitor, single point] | –
COC(=O)C1=C(c2ccc(Cl)c(C(F)(F)F)c2)C[C@@H]2CC[C@H]1N2C | – | inactive: 2.28%
COc1cc(CN2CCSCC2)cc(OC)c1OC | inconclusive: 6.31 µM [inhibitor, partial curve] | –
CCOP(=O)(OCC)c1nc(-c2cccc3ccccc23)oc1NCCc1ccc(OC)cc1 | inconclusive: 14.1 µM [inhibitor, partial curve] | –
O=c1[nH]c(O)c(N=Nc2ccc(S(=O)(=O)N3CCOCC3)cc2)c(=O)[nH]1 | inconclusive: 44.7 µM [inhibitor, partial curve] | –
Cc1cc(C)nc(N2Cc3ccccc3C2=N)n1 | – | inactive: 2.56%
COc1ccccc1OCC#CCN1CCCC1 | inconclusive: 3.55 µM [inhibitor, full curve, poor fit] | –
CC(=O)OCC1=C(C(=O)O)N2C(=O)[C@@H](N)[C@@H]2SC1 | inconclusive: 31.6 µM [inhibitor, single point] | –
CC(=O)OCC1=C(C(=O)O)N2C(=O)C(NC(=O)CCCC(N)C(=O)O)C2SC1 (centres undefined) | active: 25.1 µM | –
O=C(Nc1cccc(C(=O)Nc2cc(C(=O)Nc3ccc([S+](=O)([O-])[O-])c4cc([S+](=O)([O-])[O-])cc(SOOO)c34)ccc2F)c1)Nc1cccc(C(=O)Nc2cc(C(=O)Nc3ccc([S+](=O)([O-])[O-])c4cc([S+](=O)([O-])[O-])cc([S+](=O)([O-])[O-])c34)ccc2F)c1 | active: 2.24 µM | –
CN1C(=O)COc2c(C(=O)NC3CN4CCC3CC4)cc(Cl)cc21 (centres undefined) | inconclusive: 15.8 µM [inhibitor, single point] | –
CCC(=NCc1ccco1)c1c(O)n(Cc2ccccc2)c(=O)[nH]c1=O | inconclusive: 25.1 µM [inhibitor, single point] | –
CCC[C@@H]1CC2=CC(=O)CC[C@]2(C)[C@@H]2CC[C@@]3(C)[C@H](CC[C@]3(O)CCC(=O)O)[C@H]12 | inconclusive: 7.08 µM [inhibitor, partial curve, poor fit] | –
CN(C)C1C(=O)C(C(N)=O)C(=O)C2(O)C(=O)C3C(=O)c4c(O)cccc4C(C)(O)C3C(O)C12 (centres undefined) | inconclusive: 0.199 µM [inhibitor, full curve, poor fit] | –
c1cc(CCN2CCCC2)ccn1 | inconclusive: 89.1 µM [inhibitor, single point] | –
CN1C(=O)C(=Cc2c(OCc3cnc(Cl)s3)ccc3ccccc23)C(=O)N(C)C1=O | – | inactive: -5.52%
CC[C@@]1(O)C(=O)OCc2c1cc1n(c2=O)Cc2cc3c(N)cccc3nc2-1 | inconclusive: 39.8 µM [inhibitor, partial curve] | –

SMILES | Potency | activity change, negative = inhibition
CN(C)c1ccc(/C=C2/C(=O)NC(=O)N(Cc3ccco3)C2=O)cc1 | active: 28.2 µM | –
BrCC(Br)C1CCC(Br)C(Br)C1 (centres undefined) | active: 31.6 µM | –
O=C1NC(=O)N(c2ccccc2)C(=O)/C1=C/c1ccoc1 | – | inactive: -10.1%
O=C1C(Cl)=C(N2CCCCCC2)C(=O)N1c1ccccc1 | inconclusive: 35.5 µM [inhibitor, single point] | –
COc1ccc(N=C(C)c2c(O)n(C3CCCCC3)c(=O)[nH]c2=O)c(OC)c1 | – | inactive: 5.05%
N#CC1=C(N)Oc2c(c(=O)oc3ccccc23)C1c1ccc([N+](=O)[O-])o1 (centres undefined) | inconclusive: 14.1 µM [inhibitor, full curve, poor fit] | –
CCN(CCO)c1ccc(N=Cc2c(O)n(C)c(=S)[nH]c2=O)cc1 | inconclusive: 2.51 µM [inhibitor, full curve, poor fit] | –
Oc1ccccc1O | inconclusive: 20 µM [inhibitor, partial curve] | –
Cc1ccc(OCCOc2cccc(C=C3C(=O)NC(=O)NC3=O)c2)c(C)c1 | active: 79.4 µM | –
CC1(C)C(C=C(Cl)Cl)C1C(=O)OC(C#N)c1cccc(Oc2ccccc2)c1 (centres undefined) | inconclusive: 12.6 µM [inhibitor, full curve, poor fit] | –
CN(N=O)c1cc(O)ccc1O | inconclusive: 0.501 µM [inhibitor, full curve] | –
O=C(NC(O)C(Cl)(Cl)Cl)NC(O)C(Cl)(Cl)Cl (centres undefined) | – | inactive: 2.22%
c1ccc2cc(CC3=NCCN3)ccc2c1 | inactive | –
CCOP(=S)(OCC)Oc1nc(Cl)c(Cl)cc1Cl | active: 50.1 µM | –
CCc1nnc(NC(=O)CSc2ccc(-c3ccco3)nn2)s1 | active: 22.4 µM | –
O=c1[nH]c(=S)[nH]c(O)c1N=Nc1ccc(S(=O)(=O)N2CCOCC2)cc1 | active: 20 µM | –
O=C(O)c1cc[c]([Hg][Cl])cc1 | inconclusive: 1.58 µM [inhibitor, partial curve, poor fit] | –
O=C(O)c1cc[c]([Sb](=[O])([OH])[OH])cc1[N+](=O)[O-] | active: 1.58 µM | –
CN1CCN(Cc2ccc(Br)s2)CC1 | inconclusive: 35.5 µM [inhibitor, single point] | –
c1ccc(C(c2ccccc2)N2CCN(c3ccc4ccccc4n3)CC2)cc1 | inconclusive: 17.8 µM [inhibitor, single point] | –
O=C1NCN(c2ccccc2)C12CCN(C[C@H]1COc3ccccc3O1)CC2 | – | inactive: 8.33%
CCCCC/C=C\C/C=C\C/C=C\C/C=C\CCCC(=O)NCCc1ccc(O)c(O)c1 | inactive | –
